Measurements taken from the supplement of paper PMC11417369.
This is one part of the list.

These sequences were tested on PfAP2-HC AP2 domain (GST-tagged) (assay: gcPBM binding intensity (ln(normalized median fluorescence intensity)); higher = stronger DNA binding).
Procedure, shortened: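 Binding of GST-tagged P. falciparum DNA-binding domains, expressed in E. coli and used at about 25 μg on average, was carried out for 1 h in 1× PBS containing 1% milk, 0.2 mg/ml BSA, 0.5% salmon testes DNA and 0.03% Triton X-100. The target was an Agilent 4 × 180k array of primer-extended double-stranded 36-bp intergenic genomic probes plus negative controls, read with Alexa488 anti-GST antibody at 488 nm. Binding intensity is the highest Masliner-normalised natural-log median intensity across replicate spots of either probe orientation.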

| Sequence | gcPBM binding intensity (ln) |
| --- | --- |
| CTTCCTTAGGAATGTACACACATATATAATATGTTG [CACACA_site461] | 9.81 |
| TTTTCTTACTATTGTAGTACAATATTATATTCTTTT [XGTACX_site1925] | 10 |
| TATAAATATGTATATACACACTTTTAATATTCATAA [CACACA_site7856] | 9.68 |
| TGCGTATTCTTATTAGGTACACATATTCGTGATAAT [XGTACX_site5681] | 9.61 |
| TAATATTTTTATTATTAGAATTGTATATGTTTAATA [CACACA_negctrl_site1833] | 9.21 |
| TTTTCTAAAATATTCATAATAAATCAAAAAAAAAAA [GTGCAC_negctrl_site320] | 9.29 |
| CATATATCATAAATATGTACGAAATAAAAGAATCAT [XGTACX_site942] | 9.71 |
| ATAAAAGGAATATTTGCATGTGGTAGTACATAACAT [TGCATGCA_site978] | 9.71 |
| TACAAATATAGACACACACACATATATATATATATA [CACACA_site585] | 10.1 |
| GATTTATATATATAAAATAATTGAATATTTTCTTTT [CACACA_negctrl_site801] | 9.48 |
| TAATTTGAAAAATTGTGTACTCATAAAATAAATAAA [XGTACX_site2138] | 9.52 |
| ATAAAAAAATAAAACACACACATATAGATTATAGAT [CACACA_site7343] | 10.3 |
| ATAGATGATATACGTAAACACACAAATAAAAAAAAT [CACACA_site9095] | 9.99 |
| TTTATTTTTCATAATTGTACAAAAATAAATGGAAAC [XGTACX_site5144] | 9.47 |
| TACATACAGATATATACACACATATAAAATATAGAT [CACACA_site6319] | 9.95 |
| ATTATATATAAATATACACACATATATAAAATACAT [CACACA_site5298] | 9.89 |
| AAGAGAAAAATATGGTTGCACTAAAAATATATATTT | 9.57 |
| AAATTAAAAAGAGCTTGTACAGATGTATACATAATA [XGTACX_site3882] | 9.97 |
| TTTATAATTCTTACAACACACAATGTACATTTATAT [CACACA_site1261] | 9.92 |
| TATATGAAGCTATAGACACACATATAAAAATAGAAT [CACACA_site1313] | 9.9 |
| AATTTATATGTTTTGTGTACACAATTTATTAAATTA [XGTACX_site6448] | 9.87 |
| TACATATATATATGTATATATATATATATATAAATA [XGTACX_negctrl_site351] | 9.76 |
| AAATGTGCATTATGTTGTACAGTCGAAATTTTTTTT [XGTACX_site3812] | 9.65 |

| Sequence | gcPBM binding intensity (ln) |
| --- | --- |
| ACATAACTGATATATACACACAATACAAATATAGAT [CACACA_site7328] | 10 |
| ATGAATAAATGAACATGTACATATATATATATATTA [XGTACX_site5005] | 9.81 |
| TAAAAAATTAATAAAGTGCATAAATATTACAATATT | 9.66 |
| TTTTCTAAATATTATAGTACTCTTAATAATATTAAC [XGTACX_site4222] | 9.34 |
| TTAACAAAATATAGCACACATAAATATATATTTATG [CACACA_site351] | 9.71 |
| ATTCATATATTTATTGCATGCAAAGTAAAATAAATA [TGCATGCA_site307] | 9.56 |
| GACATATTAGAAGGGTGTACATACTTTTAATCATTT [XGTACX_site1698] | 9.7 |
| AATATTAAAATATAAACACACAAAATTCAATTATAT [CACACA_site5971] | 9.89 |
| TCTTACAAAAAACAAACAGAGAAAAATATAAGGAAA [XGTACX_negctrl_site520] | 9.61 |
| CATACACAAGAAAATTCACACACACCCATATATATA [CACACA_site9288] | 11.3 |
| AACATACAGAAACACACACACACACCCACACCCACA [CACACA_site493] | 11.5 |
| TTTTTTTTTTTGTATCGTACATTTATAATGTTTATA [XGTACX_site6804] | 9.68 |
| TTTTTTTCATATAACACACACACAAAAATAATGTGG [CACACA_site3688] | 10 |
| TAAACATTGTAAAGGAGTACAAAATTTTTTTTATGA [XGTACX_site7757] | 9.55 |
| AATAATAAAAAATACACACACATATATATATATTAC [CACACA_site3464] | 10.2 |
| ATATATATTTATTTATGTACGAATAAATTTACGAAT [XGTACX_site5190] | 9.51 |
| TTAATAGGTCGAAGTAGTACATAAAAATATATATAT [XGTACX_site5960] | 9.67 |
| AATATCATTATATAAGTGCATTTTTTAAAAGATAAA [GTGCAC_site9479] | 9.52 |
| AAGTTAACAATATGAAGTACAAATGAAAAAAAAAAA [XGTACX_site666] | 9.74 |
| ATATATATATATCATAGTACACATATGTGTCTCGTG [XGTACX_site774] | 9.89 |
| TTGTTATAGAAGCATTCACACACACCCATACATACA [CACACA_site8414] | 10.8 |
| ACTGTCGTTTTAAAGAGTACATAAAATATTAAATTA [XGTACX_site3589] | 9.14 |
| ATGTCTTTGAAAAAAAGTACTTAAAATTATAAAAAT [XGTACX_site147] | 9.42 |

| Sequence | gcPBM binding intensity (ln) |
| --- | --- |
| TTCTTTTAAAGGTATACATGCGCATGGATTTTTCAT [TGCATGCA_site223] | 9.89 |
| TCAAAGCACAGATACACACACATATATATATATATA [CACACA_site287] | 10.1 |
| AATTAAAAAATTATCACACATATATATATATATATA [CACACA_site5789] | 9.53 |
| AAAACTATTAATGCAAAAAATAAAATATAATAATAA [XGTACX_negctrl_site524] | 9.69 |
| TATATACCACATTGTTGTACGACACATTTACATTTT [XGTACX_site8370] | 10 |
| GGAAACACGATATATACACACATATTTATATTTATA [CACACA_site6250] | 10.2 |
| TCCAAATAAATATATTGTACAGAATTATTGATACCT [XGTACX_site327] | 9.5 |
| ATGTTGTTATAAAGAGTGCAACGTATATGTATCCTT [GTGCAC_site9935] | 9.67 |
| AGAAAAGGAAAATAAACATGCAAAAATAATATTAAA [TGCATGCA_site337] | 9.67 |
| ATTCTGAATGTTATGCGTACATATTAATCCTATTTA [XGTACX_site1216] | 9.61 |
| TAAGGTTCATTAAAGTGTACACATAAATACCGTAAC [XGTACX_site8212] | 9.78 |
| TGTAATAATTATTGCACGCACACAAAAACCTATAGA [CACACA_site2932] | 9.91 |
| AAGTAAATATAATAAGGTACACATAAATAAATAAAT [XGTACX_site1740] | 9.93 |
| AAAAAAAAAAAAAGTACACACTTTTGCGTACAAGTA [CACACA_site5672] | 9.76 |
| TATTTATTATATAAATGTACATAATATATGTATGTC [XGTACX_site2815] | 9.57 |
| TATATCATAAAAAATTGTACATATATATATTATATA [XGTACX_site6726] | 9.47 |
| TGATGGGACATAAATATTGAGATGATCATAAGATAA [TGCATGCA_negctrl_site276] | 9.69 |
| AAAGATAATATATGCACACATATAAATATATAAATA [CACACA_site3477] | 9.85 |
| TTATGATTATAACGTTTTGACATTAGGCATATATAT [CACACA_negctrl_site1396] | 9.56 |
| AAGAAAAAAAAAAAAAAAAAAAAAAAAAATTTATGA [TGCATGCA_negctrl_site294] | 9.12 |
| CAGTTATTTTAATGTGGTACACAATTTTAAAATTAT [XGTACX_site8571] | 9.52 |
| TGAAATGATATATAAACACACATATATAAATATGTA [CACACA_site7616] | 9.83 |
| AAATATAATTTGCGATGTACACATATATATTTATTT [XGTACX_site1568] | 9.75 |

| Sequence | gcPBM binding intensity (ln) |
| --- | --- |
| ATATAAAATGAACATAGTACTTTTTATATATTTTAA [XGTACX_site7461] | 9.42 |
| TACCTATACCTATACACACACACACGGAAATAAATA [CACACA_site6750] | 10.3 |
| AATTTTATAAAAAGTAGTACATATCAAACACCTTGA [XGTACX_site2297] | 9.65 |
| AATGTGCCCACGCGTACACACAAAAAAAGAAAAAAA [CACACA_site2003] | 9.7 |
| ATAAAATAATTAATGGGTACATAATTAAATAAAGAG [XGTACX_site3309] | 10 |
| TTTTAAAAAAAAAAAAAAAAAATTAAAATAATTCAA [TGCATGCA_negctrl_site69] | 8.82 |
| CATACATAGAAACACACACACACACCCACCCACAAA [CACACA_site494] | 10.6 |
| ATTCTATATTTAAATGCATGCACTTTCTATTTTTTT [TGCATGCA_site435] | 10.2 |
| TTTAATTTGTTATACACACACAAAAAAAATTATAAA [CACACA_site3937] | 9.88 |
| GACACTTTGAAGGGTACATGCAGAAAAAAAAAAAAA [TGCATGCA_site89] | 9.34 |
| TTTTATTTATCTAATTGTACTCATTCTTTTTTGATG [XGTACX_site2876] | 9.65 |
| GCTAAAAGTATATGCACACACATATAGATGCACATA [CACACA_site6868] | 10.1 |
| AATACAATTTTTAACACACACACAATAATACAGATA [CACACA_site4823] | 11.2 |
| GTGTAATTTATTGTGTTGCACTTTTTTTTTTTTTTT [GTGCAC_site9644] | 9.84 |
| AAGATAGACTCATATGCATGCATTCACATACCAACA [TGCATGCA_site179] | 9.79 |
| TTAATATAGGAATATGCACACATATATACATACATA [CACACA_site8432] | 9.8 |
| GGATAAGATGTATATACACACAATTTAAAAAAATAA [CACACA_site910] | 9.82 |
| TTTGATAAAATTGATATCCTATAATTATATAAATAA [GTGCAC_negctrl_site317] | 9.36 |
| AAAAAACAGACATACACACACACACCCATATATATA [CACACA_site3392] | 10.8 |
| GATAAAATAAAAGTGGGTACTTAAATATATATATAA [XGTACX_site8457] | 9.77 |
